# Reference: the supplement of paper PMC8728848
# The other results are listed elsewhere or left out.
# B1: Gal 3 (Homo sapiens), P17931 (protein)
# chain: MADNFSLHDALSGSGNPNPQGWPGAWGNQPAGAGGYPGASYPGAYPGQAPPGAYPGQAPPGAYHGAPGAYPGAPAPGVYPGPPSGPGAYPSSGQPSAPGAYPATGPYGAPAGPLIVPYNLPLPGGVVPRMLITILGTVKPNANILDFQRGNDVAFHFNPRFNENNRRVIVCNTLLDNNWGREERQSVFPFESGKPFKIQVLVEPDHFKVAVNDAHLLQYNHRVKKLNEISKLGISGDIDLTSASYTMI
# Assays:
# Assay in all cases: glycan array binding signal (z-score within array); higher = stronger binding
# Details in all cases: glycan notation: IUPAC condensed, linker removed; mutation: K176L
# [1] = target: Man(b1-4)GlcNAc
# How it was run: (§1)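 The binding signal is a Z-score computed within each array and averaged over linkers. Arrays of the same protein sequence at different concentrations or buffers were also averaged together. Data originate from 3228 arrays in the Consortium for Functional Glycomics database, kept only where the protein sequence was available.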
# [2] = target: Neu5Ac(a2-3)Gal
# How it was run: as §1
# [3] = target: Neu5Ac(a2-3)Gal(b1-3)GalNAc
# How it was run: as §1
# [4] = target: Neu5Ac(a2-3)Gal(b1-3)GalNAc(b1-3)Gal(a1-4)Gal(b1-4)Glc
# How it was run: as §1
# [5] = target: Neu5Ac(a2-3)Gal(b1-3)GalNAc(b1-4)[Neu5Ac(a2-3)]Gal(b1-4)Glc
# How it was run: as §1
# [6] = target: Neu5Ac(a2-3)Gal(b1-3)GalNAc6S
# How it was run: as §1
# [7] = target: Neu5Ac(a2-3)Gal(b1-3)GlcNAc
# How it was run: as §1
# [8] = target: Neu5Ac(a2-3)Gal(b1-3)GlcNAc(b1-2)Man(a1-3)[Neu5Ac(a2-3)Gal(b1-3)GlcNAc(b1-2)Man(a1-6)]Man(b1-4)GlcNAc(b1-4)GlcNAc
# How it was run: as §1
# [9] = target: Neu5Ac(a2-3)Gal(b1-3)GlcNAc(b1-3)Gal(b1-3)GlcNAc
# How it was run: as §1
# [10] = target: Neu5Ac(a2-3)Gal(b1-3)GlcNAc(b1-3)Gal(b1-4)GlcNAc
# How it was run: as §1
# [11] = target: Neu5Ac(a2-3)Gal(b1-3)GlcNAc(b1-3)GalNAc
# How it was run: as §1
# [12] = target: Neu5Ac(a2-3)Gal(b1-3)GlcNAc6S
# How it was run: as §1
# [13] = target: Neu5Ac(a2-3)Gal(b1-3)[Fuc(a1-4)]GlcNAc
# How it was run: as §1
# [14] = target: Neu5Ac(a2-3)Gal(b1-3)[Fuc(a1-4)]GlcNAc(b1-3)Gal(b1-3)[Fuc(a1-4)]GlcNAc
# How it was run: as §1
# [15] = target: Neu5Ac(a2-3)Gal(b1-3)[Fuc(a1-4)]GlcNAc(b1-3)Gal(b1-4)[Fuc(a1-3)]GlcNAc
# How it was run: as §1
# [16] = target: Neu5Ac(a2-3)Gal(b1-3)[Neu5Ac(a2-3)Gal(b1-4)]GlcNAc
# How it was run: as §1
# [17] = target: Neu5Ac(a2-3)Gal(b1-3)[Neu5Ac(a2-6)]GalNAc
# How it was run: as §1
# [18] = target: Neu5Ac(a2-3)Gal(b1-4)Glc
# How it was run: as §1
# [19] = target: Neu5Ac(a2-3)Gal(b1-4)GlcNAc
# How it was run: as §1
# [20] = target: Neu5Ac(a2-3)Gal(b1-4)GlcNAc(b1-2)Man(a1-3)[GlcNAc(b1-2)Man(b1-4)GlcNAc(b1-2)Man(a1-6)]Man(b1-4)GlcNAc(b1-4)GlcNAc
# How it was run: as §1
# [21] = target: Neu5Ac(a2-3)Gal(b1-4)GlcNAc(b1-2)Man(a1-3)[Neu5Ac(a2-6)Gal(b1-4)GlcNAc(b1-2)Man(a1-6)]Man(b1-4)GlcNAc(b1-4)GlcNAc
# How it was run: as §1
# [22] = target: Neu5Ac(a2-3)Gal(b1-4)GlcNAc(b1-3)Gal(b1-3)GlcNAc
# How it was run: as §1
# [23] = target: Neu5Ac(a2-3)Gal(b1-4)GlcNAc(b1-3)Gal(b1-4)GlcNAc
# How it was run: as §1
# [24] = target: Neu5Ac(a2-3)Gal(b1-4)GlcNAc(b1-3)Gal(b1-4)GlcNAc(b1-3)Gal(b1-4)GlcNAc
# How it was run: as §1
# [25] = target: Neu5Ac(a2-3)Gal(b1-4)GlcNAc(b1-3)Gal(b1-4)[Fuc(a1-3)]GlcNAc
# How it was run: as §1
# [26] = target: Neu5Ac(a2-3)Gal(b1-4)GlcNAc(b1-3)GalNAc
# How it was run: as §1
# [27] = target: Neu5Ac(a2-3)Gal(b1-4)GlcNAc(b1-6)[Gal(b1-3)]GalNAc
# How it was run: as §1
# [28] = target: Neu5Ac(a2-3)Gal(b1-4)GlcNAc(b1-6)[Neu5Ac(a2-3)Gal(b1-3)]GalNAc
# How it was run: as §1
# [29] = target: Neu5Ac(a2-3)Gal(b1-4)GlcNAc6S
# How it was run: as §1
# [30] = target: Neu5Ac(a2-3)Gal(b1-4)[Fuc(a1-3)]GlcNAc
# How it was run: as §1
# [31] = target: Neu5Ac(a2-3)Gal(b1-4)[Fuc(a1-3)]GlcNAc(b1-3)Gal
# How it was run: as §1
# [32] = target: Neu5Ac(a2-3)Gal(b1-4)[Fuc(a1-3)]GlcNAc(b1-3)Gal(b1-4)GlcNAc
# How it was run: as §1
# [33] = target: Neu5Ac(a2-3)Gal(b1-4)[Fuc(a1-3)]GlcNAc(b1-3)Gal(b1-4)[Fuc(a1-3)]GlcNAc(b1-3)Gal(b1-4)[Fuc(a1-3)]GlcNAc
# How it was run: as §1
# [34] = target: Neu5Ac(a2-3)Gal(b1-4)[Fuc(a1-3)]GlcNAc(b1-3)GalNAc
# How it was run: as §1
# [35] = target: Neu5Ac(a2-3)Gal(b1-4)[Fuc(a1-3)]GlcNAc(b1-6)[Gal(b1-3)]GalNAc
# How it was run: as §1
# [36] = target: Neu5Ac(a2-3)Gal(b1-4)[Fuc(a1-3)]GlcNAc(b1-6)[Neu5Ac(a2-3)Gal(b1-3)]GalNAc
# How it was run: as §1
# [37] = target: Neu5Ac(a2-3)Gal(b1-4)[Fuc(a1-3)]GlcNAc6S
# How it was run: as §1
# [38] = target: Neu5Ac(a2-3)Gal6S(b1-4)GlcNAc
# How it was run: as §1
binder,measurement,setting,value
B1,glycan array binding signal (z-score),[1],-0.254
same,glycan array binding signal (z-score),[2],-0.267
same,glycan array binding signal (z-score),[3],-0.269
same,glycan array binding signal (z-score),[4],-0.269
same,glycan array binding signal (z-score),[5],-0.269
same,glycan array binding signal (z-score),[6],-0.271
same,glycan array binding signal (z-score),[7],-0.266
same,glycan array binding signal (z-score),[8],-0.272
same,glycan array binding signal (z-score),[9],1.24
same,glycan array binding signal (z-score),[10],0.372
same,glycan array binding signal (z-score),[11],-0.268
same,glycan array binding signal (z-score),[12],-0.268
same,glycan array binding signal (z-score),[13],-0.27
same,glycan array binding signal (z-score),[14],-0.267
same,glycan array binding signal (z-score),[15],-0.269
same,glycan array binding signal (z-score),[16],-0.269
same,glycan array binding signal (z-score),[17],-0.267
same,glycan array binding signal (z-score),[18],-0.265
same,glycan array binding signal (z-score),[19],-0.267
same,glycan array binding signal (z-score),[20],-0.266
same,glycan array binding signal (z-score),[21],-0.266
same,glycan array binding signal (z-score),[22],-0.27
same,glycan array binding signal (z-score),[23],-0.267
same,glycan array binding signal (z-score),[24],2.86
same,glycan array binding signal (z-score),[25],-0.274
same,glycan array binding signal (z-score),[26],-0.265
same,glycan array binding signal (z-score),[27],-0.272
same,glycan array binding signal (z-score),[28],-0.268
same,glycan array binding signal (z-score),[29],-0.266
same,glycan array binding signal (z-score),[30],-0.266
same,glycan array binding signal (z-score),[31],-0.274
same,glycan array binding signal (z-score),[32],-0.26
same,glycan array binding signal (z-score),[33],-0.272
same,glycan array binding signal (z-score),[34],-0.24
same,glycan array binding signal (z-score),[35],-0.262
same,glycan array binding signal (z-score),[36],-0.267
same,glycan array binding signal (z-score),[37],-0.27
same,glycan array binding signal (z-score),[38],-0.265
